According to a collection of fitness landscapes (doi:10.1016/j.celrep.2020.107928):
In all, about 81,000 sequences were measured (“one-hybrid fitness for binding parS DNA”: median about -0.17, highest 2% from about 0.51 on). Some of the results follow.

B1: Caulobacter ParB omega fusion; a variant is named by its letters at X, in order, B8GW30 (parent)
chain: MESVVVGEPGMSEGRRGLGRGLSALLGEVDAAPAQAPGEQLGGSREAPIEILQRNPDQPRRTFREEDLEDLSNSIREKGVLQPILVRPSPDTAGEYQIVAGERAWRAAQRAGLKTVPIMVRELDDLAVLEIGIIENVQRADLNVLEEALSYKVLMEKFERTQENIAQTIGKSXSHVANXMRLLXLPDEVQSYLVSGELTAXHARAIAAAADPVALAKQIIEGGLSVRETEALARKAPNLSAGKSKGGRPPRVKDTDTQALESDLSSVLGLDVSIDHRGSTGTLTITYATLEQLDDLCNRLTRGI

Variants of: B1
Assay: one-hybrid fitness for binding parS DNA (scaled: cognate 1, non-cognate 0); higher = stronger binding
Conditions: with parS DNA site
How it was run: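 Bacterial one-hybrid selection in E. coli USO rpoZ- hisB- pyrF- with a HIS3 reporter carrying the site 19 bp from the promoter, screening Caulobacter ParB libraries with four specificity codons randomised (NNS). Cells grew 48 hours at 37°C on M9-minus-histidine plus 0.1 mM IPTG and 5 mM 3-AT. Plasmids before and after selection were Illumina-sequenced, three replicate libraries pooled, and variants under 10 reads dropped. Fitness is the log change in variant-to-wild-type read ratio, rescaled to cognate 1, non-cognate 0.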

one-hybrid fitness for binding parS DNA, 0.691:
RVET

one-hybrid fitness for binding parS DNA, ≤ 0.2:
EQNF
RGYL
RHAR
RIKK
QRHK
QLCT
VDAT
EPTH
VLVC
WAIG
VITF
GQAS
PDRG
RRIE
YPLV
MQFR
GVMD
MVFN
HRMV
WPEL
TYHQ
LEYG
AIQR
QCCK
PHPN
DGIL
GFTR
RPEN
QAFD
SYDD
TGAA
QNKE
TLAV
DWYT
QMPK
PYYT
LFYC
THCL
RRFQ
HVDN
GDTM
HDGG
EMSP
KNKR
PSQW
KHYS
TDTG
QMAR
YYEK
NGKY
QNIT
SSVC
VRPG
LNFP
QQSP
VPCS
ACGR
KTPQ
AALE
FHCC
YNNR
SNDS
DMIY
VNKK
VQTG
NLTF
NIRL
RFEI
HDMT
SWGT
CRMY
NQPC
EVDK
TLRQ
HQDA
QNEI
QSFK
LYQG
EGSS
PMFG
KKAG
VTSY
SYYK
WRYY
AFST
VLRA
FCMR
HVGV
AKEI
SVVL
HKYK
HEHL
SMEC
HVFS
QTTF
DTQC
RNEP
WPNN
TYVM
GNCM
PNYH
PNLF
KWLM
AQKN
QTRW
TLHY
IRPS
LASI
GDSG
ASWC
CKTK
AGTV
FTVV
RNNQ
QPRN
TMDR
MICS
RCNI
GEYF
LDWC
QMPN
LPWR
RHTF
QEYG
KVHS
FSRS
QIMW
HSGC
GRIC
LMHM
AHSS
YFHT
DKRV
NHQC
QRAR
IQIS
TFHM
TVDA
ESFG
CAPN
ANQD
GQIV
RGLL
KTFG
GYPL
AKLL
CIMY
NIWW
WASN
GNPF
CAAL
PLEV
RGAD
AEYS
ANKY
RGCI
QVAQ
DKHD
QFEN
SAQI
QEAI
HAAK
TARM
YFKT
FGHG
GGWK
GSGA
HADG
SDHC
SAYY
AWCV
HQNY
ERDG
CRFC
RVNP
YYFS
VKNY
IRRI
GAQV
REKV
TFNF
PPPV
CDKT
VNTV
ASSQ
PECN
LCYF
GESL
SFHA
SFKH
GTPI
QYRN
CVNE
HYMC
LATH
HILA
GSCP
PTAE
CRIY
TRSW
AKTG
ARAR
LMLR
AGRL
FITF
TLRL
LHIG
LNEL
FYLW
YNIS
QMPW
QHNH
NNYS
TEVV
TMWI
TFYR
QDHR
HIDC
DTSA
LPQW
KNKW
HWSQ
IRQK
KKWC
TVIW
WWVS
QCYL
QDKL
FPCS
TQYN
LATE
ANML
RQHQ
QNNG
QTHV
APDT
WRGH
TLDM
ESKR
SWSR
HSAA
FRST
TNVL
LTRF
FAAP
DPEW
ECDS
PYSG
TLIT
THHF
VFNR
HQNK
QVAF
ASHR
HTTE
LIIS
NKSI
NPID
IALI
EAAS
GREH
MFAG
PFYI
LWHM
DCYN
VDDQ
NSMQ
LYYY
CPQV
GFRA
RLVP
SHGS
KTRH
LAIV
SYMR
HWQS
TRTG
CSPV
IPWE
HKWR
WCGY
SITL
RIEV
QMPS
IQGG
YYIG
PQEI
ELSP
LWYP
QFAM
QYIV
TQTT
PLCV

one-hybrid fitness for binding parS DNA, 0.223:
RSCH

one-hybrid fitness for binding parS DNA, 0.214:
RCLE

one-hybrid fitness for binding parS DNA, 0.913:
RMAT

one-hybrid fitness for binding parS DNA, 0.395:
RIRN

one-hybrid fitness for binding parS DNA, 0.279:
RTIM

one-hybrid fitness for binding parS DNA, 1.01:
RTFG

one-hybrid fitness for binding parS DNA, 0.469:
RAQY

one-hybrid fitness for binding parS DNA, 0.211:
RAQH

one-hybrid fitness for binding parS DNA, 0.218:
RMTH

one-hybrid fitness for binding parS DNA, 0.477:
RISY

one-hybrid fitness for binding parS DNA, 0.422:
RYQY

one-hybrid fitness for binding parS DNA, 0.363:
RKFY
